The densities may have been worked out from excess volumes.
Experiment: xn = mol fraction of the nth substance listed
Conditions: 101 kPa

O + CCOS(=O)(=O)[O-].CC[n+]1ccn(C)c1
x2 = 0
Conditions	mass density [kg/m3]
293.15 K	998
298.15 K	996
303.15 K	995
313.15 K	992

CCOS(=O)(=O)[O-].CC[n+]1ccn(C)c1 + O
mass density [kg/m3]
Conditions	293.15 K	298.15 K	303.15 K	313.15 K
x1 = 0.001	1000	998	997	994
x1 = 0.003	1004	–	1000	–
x1 = 0.004	–	1005	1004	1000
x1 = 0.006	1013	1011	1009	1005
x1 = 0.008	1018	–	–	–
x1 = 0.013	1028	1025	1023	–
x1 = 0.019	1039	1036	1034	–
x1 = 0.032	1061	1058	1056	1051
x1 = 0.047	1084	–	–	1072
x1 = 0.071	1111	–	1105	1098
x1 = 0.103	1138	1134	1131	1124
x1 = 0.151	–	1161	1157	–
x1 = 0.229	1190	1186	1183	1175
x1 = 0.303	–	–	1197	–
x1 = 0.473	–	–	1214	1207
x1 = 0.588	1227	1224	–	–

CC[n+]1ccn(C)c1.O=S(=O)([O-])C(F)(F)F + O
mass density [kg/m3]
Conditions	293.15 K	298.15 K	303.15 K	313.15 K
x1 = 0.001	1001	998	997	993
x1 = 0.002	1007	1005	1004	1000
x1 = 0.004	–	1011	1009	–
x1 = 0.005	1019	–	1016	1012
x1 = 0.008	1027	–	–	1020
x1 = 0.012	1043	–	1039	1035
x1 = 0.017	1058	–	–	–
x1 = 0.029	–	–	1086	–
x1 = 0.041	–	–	1120	1113
x1 = 0.064	1161	–	1155	1148
x1 = 0.094	1201	1197	1194	1186
x1 = 0.137	1242	–	–	–
x1 = 0.216	1285	1281	1277	1269
x1 = 0.391	1333	1329	–	1316
x1 = 0.463	–	1342	1338	1330
x1 = 0.512	–	1348	–	1336
x1 = 0.73	–	1368	1364	–
x1 = 1	1387	1383	1379	1370

Reference: a compilation of properties of binary mixtures (doi:10.1021/acs.jpcb.8b11892)
